# Results from article PMC4336329 (PLoS ONE, 2015).
# The campaign covered roughly 310,000 compounds. About 14,000 (4.5%) showed an effect of 50% or more. Effects have a minus sign here. The list shows a part of the results.
# Molecular target: human ether-à-go-go-related gene (hERG) potassium channel (human, UniProt Q12809)
# Test: primary screen, population patch clamp on CHO cells stably expressing hERG
# 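Note: peak tail current of the secondary pulse compared with the same well before compound.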
# Sequence of human ether-à-go-go-related gene (hERG) potassium channel (Q12809 whole entry, looked up): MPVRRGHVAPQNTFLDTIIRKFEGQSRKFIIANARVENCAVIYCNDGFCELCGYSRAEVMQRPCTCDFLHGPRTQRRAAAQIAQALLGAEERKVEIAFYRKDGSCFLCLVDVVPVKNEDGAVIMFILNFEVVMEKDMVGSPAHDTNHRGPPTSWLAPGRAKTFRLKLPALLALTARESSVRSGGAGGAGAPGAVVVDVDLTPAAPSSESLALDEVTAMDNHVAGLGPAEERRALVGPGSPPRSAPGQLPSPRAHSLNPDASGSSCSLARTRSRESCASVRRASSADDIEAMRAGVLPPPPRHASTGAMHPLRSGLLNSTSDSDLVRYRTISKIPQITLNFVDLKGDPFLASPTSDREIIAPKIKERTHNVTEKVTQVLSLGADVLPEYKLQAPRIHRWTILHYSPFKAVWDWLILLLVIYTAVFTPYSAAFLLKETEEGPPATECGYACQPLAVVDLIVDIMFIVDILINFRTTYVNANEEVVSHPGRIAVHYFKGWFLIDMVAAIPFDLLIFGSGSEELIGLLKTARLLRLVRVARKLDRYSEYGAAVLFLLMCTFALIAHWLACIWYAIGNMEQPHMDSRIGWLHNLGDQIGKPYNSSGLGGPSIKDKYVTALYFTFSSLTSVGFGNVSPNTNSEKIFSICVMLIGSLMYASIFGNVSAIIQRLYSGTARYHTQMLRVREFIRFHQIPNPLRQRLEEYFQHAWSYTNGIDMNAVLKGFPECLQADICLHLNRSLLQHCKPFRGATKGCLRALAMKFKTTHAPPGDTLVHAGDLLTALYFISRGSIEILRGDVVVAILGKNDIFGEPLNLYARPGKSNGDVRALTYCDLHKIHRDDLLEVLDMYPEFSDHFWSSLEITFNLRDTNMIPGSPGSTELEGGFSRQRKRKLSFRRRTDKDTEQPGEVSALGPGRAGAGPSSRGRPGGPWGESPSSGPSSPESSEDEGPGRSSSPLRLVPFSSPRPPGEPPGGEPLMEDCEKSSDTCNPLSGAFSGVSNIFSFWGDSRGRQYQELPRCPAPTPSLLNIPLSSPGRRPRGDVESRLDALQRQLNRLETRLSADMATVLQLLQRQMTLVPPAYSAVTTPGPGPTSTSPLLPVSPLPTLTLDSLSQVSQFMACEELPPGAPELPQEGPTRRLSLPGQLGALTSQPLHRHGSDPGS
row,Compound,"hERG current change (%, negative = inhibition) at 10uM"
1,CCN(CC(=O)Nc1c(F)cccc1F)C(=O)C1CC(=O)N(CCc2ccc(OC)c(OC)c2)C1 (stereo not shown),8.38%
2,CC(C)(C)c1ccc(S(=O)(=O)n2c(CN3CCOCC3)nc3ccccc32)cc1,3.73%
3,CC(C)[C@H](NC(=O)c1ccccc1)C(=O)OCC(=O)c1ccccc1F,-3.46%
4,Cc1ccc(C)c(OCc2cc(C(=O)N3CCc4sccc4C3)no2)c1,11.7%
5,CCOC(=O)C1CCN(C(c2cc(OC)c(OC)c(OC)c2)c2sc3nc(C)nn3c2O)CC1 (stereo not shown),-4.32%
6,Cc1onc(-c2ccccc2)c1C(=O)NCc1ccc2c(c1)OCO2,6.69%
7,OCCC#Cc1ccc(CN2CCN(CCc3ccccc3)C(CCO)C2)cc1 (stereo not shown),-20.7%
8,COCCCN1C(=O)c2ccc(C(=O)Nc3cccc(OC)c3)cc2C1=O,-21.4%
9,Nc1nc(NCC(=O)O)nc(NC2CCCCC2)c1[N+](=O)[O-],19.2%
10,O=C(c1ccc2nc(N3CCOCC3)sc2c1)N1CCN(c2ccc(Cl)cc2)CC1,-15.1%
11,Cc1cccc(NC(=O)c2cccc(C(=O)Nc3cccc(C)c3)n2)c1,5.3%
12,CC(C)Cn1c(N)c(C(=O)COC(=O)c2cc(F)cc(F)c2)c(=O)n(C)c1=O,-42.1%
13,COCCn1c(SCC(=O)N2CC(=O)Nc3ccccc32)nc2ccccc21,-2.29%
14,Cc1[nH]c2ccccc2c1/C=N/Nc1ccccc1[N+](=O)[O-],12.1%
15,CC#CP(=O)(OCC)C(O)(c1ccccc1)C(F)(F)F (stereo not shown),-3.29%
16,CCN(CC)C(=O)C1CCCN(Cc2sccc2C)C1 (stereo not shown),11.6%
17,CSc1nsc(SC)c1NC(=O)N1CCCC1,-13.1%
18,CCCS(=O)(=O)c1c(S(=O)(=O)CCC)c2c(C)cccn2c1C(=O)OC,9.4%
19,CN(Cc1ccccc1NS(=O)(=O)c1ccc(Cl)cc1)C1CCCCC1.Cl,-25%
20,CCCN(CCC)C(=O)Nc1cc(Cl)ccc1OC,-3.32%
21,CCOC(=O)c1c(NC(=S)NC(=O)c2ccc(Cn3cc(Cl)cn3)o2)sc2c1CCCCC2,13.2%
22,Oc1ccc(/C=N/NC(=S)NCC2CCCO2)cc1 (stereo not shown),2.06%

row,Compound,"hERG current change (%, negative = inhibition) at 10uM"
1,Cc1ccc(Cl)cc1NC(=O)CN1C(=O)COc2ccc(S(=O)(=O)N3CCOCC3)cc21,19.2%
2,CCc1ccc(S(=O)(=O)Nc2c(C)nn(C)c2C)cc1,4.47%
3,COc1cccc(CNC(=O)CCC2CCCN(c3cc(C)nc(N(C)C)n3)C2)c1 (stereo not shown),-62.4%
4,CC(C)(C)[C@H]1C=C(C(=O)O)O[C@@H](OCc2ccc(CO)cc2)C1,20%
5,NC(=O)C1CC(=O)N(c2ccc(OCc3c(F)cccc3Cl)cc2)C1 (stereo not shown),9.14%
6,COC(=O)CSc1nnc2n(-c3ccc(OC)cc3)c(=O)c3c4c(sc3n12)CCCCC4,-10.6%
7,Oc1ccc(Br)cc1CNn1cnnc1,13.9%
8,COc1ccc(C2CC(c3ccccc3)=NN2C(=O)CSc2ncn[nH]2)cc1 (stereo not shown),-1.26%
9,CC1=CC(C)(C)NC(=S)N1c1ccc2ccccc2c1,-9.82%
10,Cc1ccc(S(=O)(=O)N2CCN(c3cnn(-c4ccccc4)c(=O)c3Cl)CC2)cc1,4.47%
11,CCOc1ccc2nc(SCC(=O)N3CCCc4ccccc43)sc2c1,-18.7%
12,COc1ccc2nc(NC(=O)C3COc4ccccc4O3)sc2c1 (stereo not shown),0.282%
13,CCC(C)N(C(=O)COC(=O)Cc1n[nH]c(=O)c2ccccc12)C1CCS(=O)(=O)C1 (stereo not shown),12.3%
14,CCCOC(=O)Nc1sc2c(c1C(=O)OCC)CCC2,-7.86%
15,N#Cc1c(NC(=O)CCCN2C(=O)c3ccccc3C2=O)oc(-c2ccccc2)c1-c1ccccc1,-4.58%
16,CC(C)(C)c1ccc(C(=O)NNc2ccc(F)cc2F)cc1,9.96%
17,Cc1ccc2nc(-c3ccccc3)cc(C(=O)N3CCc4ccccc4C3)c2c1,-3.74%
18,CCc1ccccc1NC(=O)CCS(=O)(=O)c1ccc(Br)cc1,13.8%
19,O=C(CCCn1c(=O)c2cccn2c2cccnc21)NCCc1ccc(Cl)cc1,-40.6%
20,C#CCNc1c2c(nc3nnnn13)CCCC2,11.2%
21,Cc1cc(S(=O)(=O)c2cc3ccc(O)c(C)c3oc2=O)ccc1F,22.6%
22,Cc1ccc(C)c(C(=O)CCC(=O)Nc2cccnc2)c1,7.26%

row,Compound,"hERG current change (%, negative = inhibition) at 10uM"
1,CCCNC(=O)C(Cc1ccccc1C)NC(=O)c1ccc(C(F)(F)F)cc1 (stereo not shown),14.7%
2,O=C(O)c1ccccc1N(c1ccccc1)c1ccccc1,17%
3,CCOC(=O)C1(C)NC(c2ccco2)C2C(=O)N(CC)C(=O)C21 (stereo not shown),8.65%
4,O=C(COC(=O)C1CCN(C(=O)c2ccc(Cl)cc2)CC1)Nc1ccccc1F,-56.9%
5,O=C(NCCNc1ccc([N+](=O)[O-])cc1)c1cc(F)c(F)cc1Cl,-45.1%
6,CC1(C)C(C=C(Cl)Cl)C1C(=O)N1CCN(Cc2ccccc2)CC1 (stereo not shown),-27.9%
7,COCCN(Cc1nc(-c2ccc(C(F)(F)F)cc2)no1)C(C)C,2.03%
8,C/C(=C1\SC(N2CCOCC2)=NC1=O)c1ccc(C)cc1,-10.8%
9,O=C(Nc1nccs1)c1nc[nH]c1C(=O)NCc1ccccc1,3.34%
10,COc1cc(C(=O)Oc2ccc(C(=S)N3CCOCC3)cc2)cc(OC)c1OC,12.2%
11,COCCNC(=O)c1ccc(NC(C)=O)cc1,6.98%
12,COC(=O)c1ccc2c(c1)N(C)C(=O)CS2,-7.15%
13,CCc1ccccc1NC(=O)CNC(=O)c1cn(Cc2ccccc2)nc1-c1cccnc1,-9.32%
14,O=C(CN(C(=O)Cn1nnc(-c2ccc(F)cc2)n1)c1cccc(F)c1)NC1CCCC1,7.98%
15,CN(CCOC(=O)C1c2ccccc2Oc2ccccc21)C(C)(C)C.Cl,-35%
16,O=C(NC1CCS(=O)(=O)C1)c1ccccc1C(=O)c1ccccc1 (stereo not shown),9.94%
17,CCOC(=O)COc1nc(-c2ccc(Cl)cc2)cc(-c2ccco2)c1C#N,-3.2%
18,O=c1oc2ccccc2n1CSC1=NCCS1,-6.31%
19,Oc1c(C(c2ccccc2)N2CCCCC2)sc2ncnn12 (stereo not shown),-8.46%
20,CC1(C)Oc2ccc3ccc(=O)oc3c2/C(=C/Nc2ccccn2)C1=O,13.4%
21,CN(C(=O)COC(=O)CNC(=O)c1ccc(C(C)(C)C)cc1)c1c(N)n(Cc2ccccc2)c(=O)[nH]c1=O,-0.48%
22,Cc1ccc(CN2CCc3[nH]c(=O)[nH]c(=O)c3C2)cc1,17.5%

row,Compound,"hERG current change (%, negative = inhibition) at 10uM"
1,Cc1cccc(CN2CCN(C(=O)Cc3ccccc3)CC2)c1.O=C(O)C(=O)O,4.99%
2,COC(=O)c1ccc(NC(=O)COC(=O)c2nc3nccc(C)n3n2)cc1,-13.9%
3,C=CCOc1c(/C=N\NC(N)=O)cccc1OC,10.4%
4,O=C(N/C(=C/c1cn(-c2ccccc2)nc1-c1ccccc1)C(=O)N1CCOCC1)c1ccccc1,3.1%
5,Nc1ccc(-c2cc(N)n(-c3ccccc3)n2)cc1,0.669%
6,C=CCNC(=S)NC(=O)c1oc2ccccc2c1C,20.3%
7,CC(C(=O)N(C)C1CCCCC1)N1CCC(C(N)=O)CC1 (stereo not shown),25%
8,COC(=O)c1sccc1-n1cccc1C(=O)NCc1ccccc1,13%
9,CNC(=S)Nc1ccc(OC(F)(F)F)cc1,5.44%
10,COc1ccccc1Nc1nc(N)nc(CSC(=S)N2CCN(c3ccccc3)CC2)n1,6.86%
11,Cc1cccc2[nH]c(CN(C)Cc3nc(CC4CC4)no3)nc12,-11.8%
12,COc1cc(CNC(C)C23CC4CC(CC(C4)C2)C3)ccc1OCC(=O)NC(C)(C)C.Cl (stereo not shown),-4.99%
13,Cc1c(C)c2ccc(OCC(=O)NC(Cc3ccc(Cl)cc3)C(=O)O)cc2oc1=O (stereo not shown),2.67%
14,COC(=O)C1=C(c2c(C)noc2C)C[C@@H]2CC[C@H]1N2C(=O)N1CCC(C)CC1,3.62%
15,CCCn1c(C2CCCN2c2nc(-c3ccc(OC)cc3)cs2)nc2ccccc21 (stereo not shown),13.2%
16,O=C(NC(=S)NCCc1ccc(Cl)cc1)c1ccco1,23.6%
17,CC(=O)Nc1ccc(S(=O)(=O)N(CCO)Cc2ccccc2)cc1,8.86%
18,NC(=O)CC(NC(=O)Cc1cccc2ccccc12)c1ccc(N2CCCCCC2)c([N+](=O)[O-])c1 (stereo not shown),1.13%
19,NC1=NC(c2ccccc2Cl)n2c(nc3ccccc32)N1 (stereo not shown),-4.63%
20,CCOc1ccc(NC(=O)CN(C)C(=O)c2ccc3nc(CC)c(CC)nc3c2)cc1OCC,-34.8%
21,CC(=O)c1sccc1NC(=O)c1ccccc1C(=O)O,7.63%
22,COc1cccc(CC(=O)OCC(=O)Nc2nnc(-c3ccccc3)o2)c1,-8.21%
